Experimental data: PMC9574860, “Chemical Toolkit for PARK7: Potent, Selective, and High-Throughput” (Journal of Medicinal Chemistry, 2022)
Screen size: about 7,900 compounds; about 400 (5.1%) showed an effect of 50% or more. The list shows a part of the results.

The molecules below were run against Parkinson's disease protein 7 (PARK7/DJ1) (human, UniProt Q99497) (assay: primary screen, percent inhibition; read as competition with a fluorescent probe by fluorescence polarization; higher = more effect of the substance). Settings: 100 µM.
Sequence of Parkinson's disease protein 7 (PARK7/DJ1) (Q99497 whole entry, looked up, the tested form may be a part): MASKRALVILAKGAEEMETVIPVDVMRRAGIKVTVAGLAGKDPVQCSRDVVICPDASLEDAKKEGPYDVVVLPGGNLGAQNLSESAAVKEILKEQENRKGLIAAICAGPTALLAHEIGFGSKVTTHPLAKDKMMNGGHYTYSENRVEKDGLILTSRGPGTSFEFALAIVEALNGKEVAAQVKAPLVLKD
Procedure, shortened: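 Covalent fragments at 100 μM final were incubated 2 h with 0.2 μM PARK7, then 20 nM probe JYQ-107 added for a further 2 h. Fluorescence polarization read at 480/520 nm; relative FP loss versus reference controls gave remaining enzyme activity.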

Compound | Inhibition %
COC(=O)c1ccccc1S(=O)(=O)F | 52.5%
O=C(CCl)Nc1cc(Cl)ccc1[N+](=O)[O-] | 1%
Cc1nn(S(=O)(=O)c2ccc(Cl)cc2)c(C)c1Cl | 6.1%
Cc1nnnn1C(=Cc1ccccc1)C(=O)N(C)C | 15%
CCC(C)c1ccc(-c2csc(NC(=O)CCl)n2)cc1 (centres unmarked) | 8.03%
C=CC(=O)NC1C(=O)NCC1(C)C (centres unmarked) | 9.19%
COC(F)(F)C(F)(F)c1ccc(B2OC(C)(C)C(C)(C)O2)cc1 | 6.09%
O=S(=O)(C=Cc1ccccc1)N1CCCn2ncnc21 | 6.48%
C=CC(=O)Nc1cc(OC)c(Cl)cc1OC | 16%
C=CC(=O)NC(c1ccc(Cl)cc1)C1CN(C)CCO1 (centres unmarked) | 6.77%
C=CCNC(=O)C(C#N)=Cc1cccn1C | 17%
CC(C)Cn1c(N)c(C(=O)CCl)c(=O)n(C)c1=O | 6.06%
C=CC(=O)N1CCCC(c2nc(C(F)(F)F)cn2C)C1 (centres unmarked) | 7.43%
N#Cc1nc(N2CCCC(N3CCNC3=O)C2)ccc1Cl (centres unmarked) | 1.45%
CC(C)c1ccccc1NC(=O)CCl | 4.33%
Cc1ccc(S(=O)(=O)F)cc1C(=O)O | 87.9%
ClCC1CN(c2ccccc2)CCO1 (centres unmarked) | 6.62%
CCCOc1cc(C)c(C)cc1S(=O)(=O)n1ccnc1C | 8.09%
Cl.NC1CN(c2ccc(F)cc2)C1=O (centres unmarked) | 3.13%
N#Cc1ncccc1S(=O)(=O)N1CCC(C(F)(F)F)CC1 | 5.48%
CCOc1ccc(S(=O)(=O)n2ccnc2)c(C)c1C | 2.03%
C=CC(=O)N1CCS(=O)(=O)[C@H](C)C1 | 9.29%
COc1cc(SC#N)ccc1O | 15.4%
CCS(=O)(=O)CCN(C#N)c1ccc(F)c(Cl)c1 | 4.71%
O=C(CCl)NN(c1ccccc1)c1ccccc1 | 10.3%

Compound | Inhibition %
COc1nsc(OC)c1B1OC(C)(C)C(C)(C)O1 | 25.3%
O=C(C1CCOCC1)N1CCCC(CS(=O)(=O)F)C1 (centres unmarked) | 55.9%
Cc1sc2ncn(CCS(=O)(=O)F)c(=O)c2c1C | 6.46%
Cc1nn(S(=O)(=O)c2ccc(Cl)cc2)c(C)c1C | 10%
O=C(NCC1CCC(O)C1)c1cccc(B(O)O)c1 (centres unmarked) | 3.39%
CCC(C)c1ccccc1NC(=O)CCl (centres unmarked) | 16.8%
Cn1cc(COc2cccc(B3OC(C)(C)C(C)(C)O3)c2)cn1 | 1.93%
CCN(CC)S(=O)(=O)c1cc(NC(=O)CCl)ccc1C | 7.16%
N#Cc1ncn(CCCOc2ccc(Cl)cc2)n1 | 9.73%
C=CC(=O)N1CCC(C#N)(COC)CC1 | 5.2%
CC1(C)OB(c2ccc3c(c2Cl)NC(=O)CO3)OC1(C)C | -1.01%
CCc1ccc(OC)c(S(=O)(=O)n2ccnc2C(C)C)c1 | 17.9%
CC1(C23CC4CC(CC(C4)C2)C3)CO1 (centres unmarked) | 7.91%
C=CC(=O)NCc1ccc(Cn2ccccc2=O)cc1 | 14.4%
Cn1ccc(NS(=O)(=O)C=Cc2ccc(Cl)cc2)n1 | 11.2%
Cc1nn(-c2ccccc2)c(C)c1C=C(C#N)C(=O)O | 6.36%
CS(=O)(=O)c1ccc(C(=O)CCl)cc1 | 87.3%
N#CC(=Cc1ccco1)C(=O)NCc1ccccc1 | 13%
CCC1CC(CC(=O)Nc2cn[nH]c2C#N)CCO1 (centres unmarked) | 8.24%
CC1c2cccn2CCN1S(=O)(=O)C=Cc1ccccc1 (centres unmarked) | 21.4%
C=CC(=O)Nc1cc(OC)c(OC)c(OC)c1 | 6.39%
CC(C)N1CCC(NC(=O)CCl)CC1.Cl | 2.57%
CC1CC(C)CN(C(=O)C=Cc2cscn2)C1 (centres unmarked) | 7.7%
c1ccc(OCC2CO2)cc1 (centres unmarked) | 9.6%
CCN(CC)C(=O)Oc1ccc(NC(C)=O)cc1 | 7.25%

Compound | Inhibition %
CCCc1nc(C#N)c(N2CCC(C(N)=O)CC2)o1 | 7.7%
CN(C(=O)Cn1cnc(C#N)n1)C1=CCCC1 | 9.73%
Cc1cc(C)n(S(=O)(=O)c2ccc(Cl)c(Cl)c2)n1 | 7.19%
O=C(CCl)Nc1ccc(-c2ccccc2)cc1 | 4.3%
COC(=O)c1cc(Cl)cc(Cl)c1NC(=O)CCl | 1.69%
Cl.NCCNS(=O)(=O)C=Cc1ccccc1Cl | 15.1%
O=C(CCCl)Nc1ccc2[nH]c(=O)[nH]c2c1 | 12.3%
C=CC(=O)N1CCC(Cc2ccccc2)C1 (centres unmarked) | 7.4%
CN1CCN(C(=CC#N)c2ccc(F)cc2)CC1 | 15%
C=CC(=O)Nc1ccc(S(=O)(=O)N2CCCC2)cc1 | 8.4%
C=CC(=O)NC1CN(C(C)=O)C1 | 4.46%
C=CC(=O)N1CCC(c2ccnn2C)CC1 | 4.28%
O=C(CCN1C(=O)CCC1=O)Nc1ccc(Cl)cn1 | -0.378%
C=CC(=O)N1CC(c2cc(CO)on2)C1 | 7.24%
CC1(c2ccccc2)NC(=O)N(NC(=O)CCl)C1=O (centres unmarked) | 16.9%
Cc1c(C)c2ccc(OCC3CO3)c(C)c2oc1=O (centres unmarked) | 10.5%
C=CC(=O)NCCC1Cc2ccccc2C1 | 7.33%
Cn1cc(C=C(C#N)c2nc3ccccc3s2)cn1 | 5.09%
O=S(=O)(F)c1ccc(S(=O)(=O)N2CC3CC(O)C3C2)cc1 (centres unmarked) | 20.2%
CN(Cc1ccccc1Br)C(=O)CCl | 93.9%
N#Cc1nc(C2CC2)n[nH]1 | 2.55%
N#CC(=Cc1csc(C2CC2)n1)c1ccccn1 | 6.07%
O=C1SCCN1CC(=O)N1CCCc2cc(F)c(F)cc21 | 4.11%
O=C(CCl)Nc1ccc(F)c(F)c1 | 25.9%
CC(=O)Nc1ccc(OC(=O)N2CCCC2)cc1 | 8.48%

Compound | Inhibition %
O=C(CCCl)Nc1ccccc1C(F)(F)F | 16.7%
CC(C)(C)OC(=O)N1CCOc2cccc(B3OC(C)(C)C(C)(C)O3)c2C1 | 3.79%
C=CC(=O)N(C)CC(=O)N1CCCC1 | 5.8%
N#Cc1cnc(Oc2ccc(F)cc2)cn1 | 6.61%
Cc1csc(N2CCN(C3CCOC3=O)CC2C)n1 (centres unmarked) | 4.89%
Cc1cc(NC(=O)CN2CCSC2=O)n(C)n1 | 9.76%
CN(CCN1C(=O)CCC1=O)Cc1nc2c(s1)CCCC2 | 9.47%
CC1(C)OB(c2ccnn2C2CCOCC2)OC1(C)C | 15.5%
C=CC(=O)N1CCC(c2nc(C)no2)C1 (centres unmarked) | 7.51%
C=CC(=O)N1CCN2C(=O)N(C)C(=O)C2C1 (centres unmarked) | 5.02%
C=CC(=O)N1CCN(c2ncccc2F)CC1 | 7.9%
CN(CC(=O)Nc1cccc(Cl)c1)c1ccc(C#N)nc1 | 6.52%
C=CC(=O)NC(c1ccco1)C(C)(C)C (centres unmarked) | 7.05%
C=CC(=O)N1CCC(c2ccc(C)cc2)C1 (centres unmarked) | -4.08%
Cc1sc(S(=O)(=O)F)cc1N | 21.4%
CC1CCN(CC(O)CN2C(=O)CCC2=O)CC1 (centres unmarked) | 11.1%
Cc1ccc(Nc2nccnc2C#N)cc1 | 5.64%
ClCCC1CCCO1 (centres unmarked) | 9.25%
CC(C)c1nc2c(n1C)CCN(c1cccnc1C#N)C2 | 87%
C=CC(=O)NC1CCCNC1=O (centres unmarked) | 12.4%
CC(C)(C)c1nc(C#N)co1 | 6.2%
O=C(CCl)Nc1cc2c(cc1[N+](=O)[O-])OCCCO2 | 3.15%
CC1CC(N2CCCC(Cn3cncn3)C2)C(=O)O1 (centres unmarked) | 12.1%
C=CC(=O)N1CCO[C@@H]2COCC[C@@H]21 (racemic) | 7.52%
O=S(=O)(F)c1ccc(Br)cc1 | 13.2%

Compound | Inhibition %
CCc1c(OC(=O)NC)noc1C | 84.6%
C=CC(=O)N1CCN(Cc2cccc(F)c2)CC1 | 5.18%
CC1CCCC(NC(=O)NC(=O)CCl)C1C (centres unmarked) | 0.611%
N#CC(=Cc1cccc(Cl)c1Cl)C(N)=O | 8.01%
CC1(C(=O)Nc2cccc(S(=O)(=O)F)c2)CCCC1 | 97.7%
N#Cc1cc(N2C[C@@H](C(F)(F)F)[C@H](C(N)=O)C2)ccn1 | 9.08%
CCOc1ccc(C)cc1S(=O)(=O)n1ccnc1 | 15.5%
ClCCc1cncs1 | 0.423%
Cc1c(NC(=O)c2cccnc2S)cnn1CCC(C)C | 3.61%
CCn1c(N)c(C(=O)CCl)c(=O)[nH]c1=O | 4.93%
C=CC(=O)N1CCCC(OCC(F)(F)F)C1 (centres unmarked) | -2.11%
Cc1cnc(NC(=O)c2cccnc2S)[nH]1 | 3.06%
N#CC(=Cc1cccnc1)c1nc2ccccc2[nH]1 | 21.9%
C#CC(=O)N1CCC(OC)C1 (centres unmarked) | -2.28%
O=S(=O)(C=Cc1ccccc1)Nc1ccc(F)cn1 | 6.27%
NC(=O)c1ccccc1OS(=O)(=O)c1ccccc1 | 5.17%
O=C(CCl)NC(Cc1c[nH]c2ccccc12)C(=O)O (centres unmarked) | 12.1%
C=CC(=O)NCc1cc2c(cc1OC)CC(C)O2 (centres unmarked) | 3.88%
O=C1NC(c2ccncc2)C12CCC2 (centres unmarked) | 7.13%
C=CC(=O)Nc1ccnc(OC)c1 | 10%
CCN(C(=O)CCl)c1ccccc1 | 44.6%
C=CC(=O)NC(c1ccccc1)c1nc(C)no1 (centres unmarked) | 10.1%
